PubChem BioAssay AID504333 (National Center for Advancing Translational Sciences (NCATS), 2011)
About 16,000 (4.4%) of roughly 360,000 compounds were called active. The inconclusive results got no clear call from the source; some entries with a clear call stand among them for comparison. The call rests on the fitted dose curve; in most records, active means well fitted inhibition curve with a large enough effect; inconclusive means small, poorly fitted or top-dose-only effect; inactive means no such curve, though single readings can be large or run the other way. Where the call is inconclusive, the potency comes from a doubtful curve fit.

target: Bromodomain adjacent to zinc finger domain protein 2B (Homo sapiens) (UniProt Q9UIF8); experiment: qHTS Assay for Inhibitors of BAZ2B; settings: AlphaScreen BAZ2B-H3K14Ac peptide displacement; series mostly up to 114 µM; further: nearly all actives have a fitted effect of over 60% in size
Sequence of UniProt Q9UIF8 (Q9UIF8 whole entry, looked up, the tested form may be a part): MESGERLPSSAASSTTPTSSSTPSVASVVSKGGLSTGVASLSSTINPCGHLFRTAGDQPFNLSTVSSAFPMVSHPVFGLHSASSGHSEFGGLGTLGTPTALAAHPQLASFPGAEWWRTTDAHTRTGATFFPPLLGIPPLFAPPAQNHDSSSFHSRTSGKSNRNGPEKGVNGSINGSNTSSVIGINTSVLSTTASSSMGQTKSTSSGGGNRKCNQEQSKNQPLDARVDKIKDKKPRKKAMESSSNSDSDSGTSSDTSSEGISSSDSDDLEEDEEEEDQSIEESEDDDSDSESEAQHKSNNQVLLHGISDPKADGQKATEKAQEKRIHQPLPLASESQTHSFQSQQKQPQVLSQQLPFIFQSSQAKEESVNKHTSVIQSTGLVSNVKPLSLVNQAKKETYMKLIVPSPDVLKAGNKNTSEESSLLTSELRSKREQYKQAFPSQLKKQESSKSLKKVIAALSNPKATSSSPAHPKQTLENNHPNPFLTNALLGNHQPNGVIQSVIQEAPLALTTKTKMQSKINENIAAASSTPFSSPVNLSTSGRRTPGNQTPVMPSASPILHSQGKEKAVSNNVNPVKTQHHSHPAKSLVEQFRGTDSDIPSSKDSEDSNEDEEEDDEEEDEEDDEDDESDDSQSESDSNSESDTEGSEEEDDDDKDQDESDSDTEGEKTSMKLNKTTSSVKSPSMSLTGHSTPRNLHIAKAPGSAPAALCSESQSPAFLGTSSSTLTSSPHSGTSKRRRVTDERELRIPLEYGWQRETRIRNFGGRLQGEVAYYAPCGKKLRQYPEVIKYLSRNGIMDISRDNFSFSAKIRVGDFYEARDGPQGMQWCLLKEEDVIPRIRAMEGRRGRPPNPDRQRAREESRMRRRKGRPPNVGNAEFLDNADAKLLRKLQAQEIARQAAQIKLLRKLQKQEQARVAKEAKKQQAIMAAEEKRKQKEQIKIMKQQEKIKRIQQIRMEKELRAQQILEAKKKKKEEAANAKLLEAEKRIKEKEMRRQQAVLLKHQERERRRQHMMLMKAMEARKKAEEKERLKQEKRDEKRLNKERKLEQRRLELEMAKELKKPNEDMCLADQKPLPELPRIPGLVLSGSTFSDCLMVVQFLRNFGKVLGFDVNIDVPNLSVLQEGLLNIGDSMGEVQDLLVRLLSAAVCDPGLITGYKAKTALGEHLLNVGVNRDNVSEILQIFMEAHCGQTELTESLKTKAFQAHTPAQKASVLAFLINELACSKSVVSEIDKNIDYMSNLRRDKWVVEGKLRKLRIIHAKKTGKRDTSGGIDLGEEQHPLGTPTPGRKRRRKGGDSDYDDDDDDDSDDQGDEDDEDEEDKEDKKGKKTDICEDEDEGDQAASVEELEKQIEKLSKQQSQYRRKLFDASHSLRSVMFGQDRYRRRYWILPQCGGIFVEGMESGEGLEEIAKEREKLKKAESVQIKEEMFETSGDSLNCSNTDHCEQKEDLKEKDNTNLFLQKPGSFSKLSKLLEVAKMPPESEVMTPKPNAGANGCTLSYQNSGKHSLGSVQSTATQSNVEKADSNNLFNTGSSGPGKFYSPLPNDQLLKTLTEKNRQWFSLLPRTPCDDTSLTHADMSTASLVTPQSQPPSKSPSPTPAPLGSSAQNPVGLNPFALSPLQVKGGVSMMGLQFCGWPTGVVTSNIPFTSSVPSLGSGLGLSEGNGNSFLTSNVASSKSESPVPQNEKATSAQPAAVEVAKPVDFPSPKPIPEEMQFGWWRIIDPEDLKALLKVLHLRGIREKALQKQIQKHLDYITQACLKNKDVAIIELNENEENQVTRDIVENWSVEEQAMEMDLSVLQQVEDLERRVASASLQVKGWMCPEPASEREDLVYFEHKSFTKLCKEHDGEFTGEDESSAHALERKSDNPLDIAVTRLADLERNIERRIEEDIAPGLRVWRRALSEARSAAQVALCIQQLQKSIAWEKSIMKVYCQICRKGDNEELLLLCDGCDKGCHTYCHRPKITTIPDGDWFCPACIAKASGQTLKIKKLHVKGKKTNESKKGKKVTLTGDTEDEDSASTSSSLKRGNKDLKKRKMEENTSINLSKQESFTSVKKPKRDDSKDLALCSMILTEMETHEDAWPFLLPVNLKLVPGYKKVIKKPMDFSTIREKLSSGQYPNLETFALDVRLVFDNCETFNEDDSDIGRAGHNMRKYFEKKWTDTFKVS
Procedure, shortened: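 AlphaScreen luminescence quantifies BAZ2B engagement of H3K14Ac peptide; the protein and biotinylated peptide are both at 50 nM final, buffer PBS pH 7.4 with 0.01% Tween-20, all steps at room temperature.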
Potency means the concentration at half of the fitted maximal effect; tags describe the fitted curve by direction and shape.

SMILES | Potency
CCc1nc2ccc(C(=O)N(C)CC(=O)Nc3ccc(F)c(F)c3F)cc2nc1CC | inactive
CCOc1ccc(/C=N/NC(=S)NC2CC3CC2C2C=CCC32)cc1 (stereo not given) | inconclusive: 10 µM [inhibitor, full curve]
O=C(CSc1nc(-c2ccccc2)cs1)Nc1ccccc1[N+](=O)[O-] | active: 25.1 µM
Cc1oc(-c2ccc(C(=O)NCc3ccccc3Cl)cc2)nc1CN1CCc2ccccc21 | inconclusive: 22.4 µM [inhibitor, full curve]
Oc1ccc(Br)cc1-c1nc2cnccn2c1NC1CCCC1 | inconclusive: 44.7 µM [inhibitor, partial curve]
Cc1ncc(CO)c(/C=N/NC(=O)c2cc(O)c(O)c(O)c2)c1O | active: 10 µM
COc1ccc(NC2CCCN(C(=O)c3c(C)noc3C)C2)cc1 (stereo not given) | inactive
CSc1ccccc1C(=O)Nc1ccc(C)cc1C | inactive
[N-]=[N+]=CC(=O)c1ccnc(C(=O)C=[N+]=[N-])c1 | inconclusive: 89.1 µM [inhibitor, single point]
CCOC(=O)c1c(C)[nH]c(C)c1C(=O)COC(=O)/C=C/c1cccc(F)c1 | inconclusive: 50.1 µM [inhibitor, partial curve]
CNC(=O)c1c(C)[nH]c(=S)c(C#N)c1-c1ccco1 | inconclusive: 89.1 µM [inhibitor, single point]
CCN(CC(=O)NCc1cccs1)C(=O)c1ccc(S(=O)(=O)Nc2cccc(C)c2C)cc1 | inactive
Cc1ccc(C)c(NC(=O)c2cc(S(=O)(=O)N3CCN(c4cccc(Cl)c4)CC3)ccc2F)c1 | inactive
O=C(CNc1ccc2ccccc2c1)N/N=C/C=C/c1cccc([N+](=O)[O-])c1 | active: 89.1 µM
O=S(=O)(NNc1ccc(F)cc1F)c1cccc(Cl)c1 | inconclusive: 50.1 µM [inhibitor, partial curve]
COc1ccccc1NC(=O)CCC(=O)c1ccc(-c2ccccc2)cc1 | inactive
Cc1cc(C(=O)CN2C(=O)NC(C)(CC(C)C)C2=O)c(C)n1-c1ccc2c(c1)OCO2 (stereo not given) | inconclusive: 44.7 µM [inhibitor, partial curve]
COc1cccc(C(=O)C2CCCN(C(=O)c3cccc(C#CC(C)(C)O)c3)C2)c1 (stereo not given) | inconclusive: 89.1 µM [inhibitor, single point]
CC(=O)N(C)c1ccc(NC(=S)NC(=O)/C=C/c2ccco2)cc1 | inconclusive: 79.4 µM [inhibitor, single point]
CC(=O)N1CCCc2cc(S(=O)(=O)NCc3ccccc3Cl)ccc21 | inactive
O=[N+]([O-])c1cc(S(=O)(=O)Nc2ccccc2)ccc1NCc1ccccc1 | inconclusive: 31.6 µM [inhibitor, full curve]
Cc1ccc(-c2nnn(CC(=O)Nc3cccc4cccnc34)n2)o1 | inconclusive: 89.1 µM [inhibitor, single point]
COc1ccc(Nc2ncc3c(n2)CCN(Cc2cccc(F)c2F)C3)c(OC)c1 | inconclusive: 10 µM [inhibitor, full curve, poor fit]

SMILES | Potency
C#CCOCCOCCOCCNc1nc(N2CCN(C(=O)CCCCCCCCCCNC(=O)Cn3cc(CCCCCN)nn3)CC2)nc(N2CCN(C(=O)CCCCCCCCCCNC(=O)[C@H](CO)n3cc(CCCSC)nn3)CC2)n1 | active: 50.1 µM
COc1ccc(OC)c(NC(=O)N2CCCC(CNS(=O)(=O)c3cccs3)C2)c1 (stereo not given) | inconclusive: 89.1 µM [inhibitor, single point]
COc1ccc(CN2CCN(C(=O)CC(C)C)CC2)c(OC)c1OC | inconclusive: 89.1 µM [inhibitor, single point]
Cc1ccc(C)c(NC(=O)COC(=O)c2cc(=O)c3ccccc3o2)c1 | inactive
CCCOc1ccccc1/C=C(\C#N)C(=O)Nc1cccnc1 | inactive
C/C(CC1CC(C)(C)OC1=O)=N/Nc1nc(-c2ccccc2)cs1 (stereo not given) | inconclusive: 50.1 µM [inhibitor, partial curve]
Cc1[nH]c2ccccc2c1SCc1nnc(SCc2ccccc2)n1C | inconclusive: 50.1 µM [inhibitor, partial curve]
CCc1ccc(NC(=O)c2sc(-n3nc(C)c(Cc4ccc5c(c4)OCO5)c3C)nc2C)cc1 | inactive
CC(C)(C)c1ccc(S(=O)(=O)c2cnc(SCC(=O)Nc3ccc4c(c3)OCCO4)[nH]c2=O)cc1 | inconclusive: 79.4 µM [inhibitor, single point]
CCOc1cc(C=C2C(=O)c3ccccc3C2=O)ccc1OCC(=O)Nc1ccc(C)cc1 | inactive
Cc1ccc(Cc2c(C)[nH]c(=S)[nH]c2=O)cc1 | inactive
COc1cc(C(C)=O)ccc1OCC(O)CN1CCN(c2ccc(C)c(C)c2)CC1 (stereo not given) | inactive
COc1cc([N+](=O)[O-])ccc1NC(=O)C1CCCN(S(C)(=O)=O)C1 (stereo not given) | inactive
COc1ccc(-c2nc(CSCC(=O)NC3CCCc4ccccc43)c(C)o2)cc1OC (stereo not given) | inconclusive: 70.8 µM [inhibitor, single point]
CN1CCN(CCn2c(=S)[nH]c3ccccc3c2=O)CC1 | inconclusive: 89.1 µM [inhibitor, single point]
CCOC(=O)c1sc2nc(C)nc(Nc3ccccc3)c2c1C | inconclusive: 89.1 µM [inhibitor, partial curve]
O=C(Nc1cccc([N+](=O)[O-])c1)Nc1cccs1 | inconclusive: 56.2 µM [inhibitor, partial curve]
CC1CCN(C(=O)c2[nH]cnc2C(=O)N2CCN(c3ccccc3)CC2)CC1 | inactive
Cc1cc(C)n2nc(C(=O)NCc3ccco3)cc2n1 | inconclusive: 79.4 µM [inhibitor, single point]
Cc1nnsc1C(=O)Oc1ccc(C#N)cc1 | inconclusive: 79.4 µM [inhibitor, single point]
COc1ccccc1N1CCN(CCCNC(=O)C2CCCN(c3ncnc4c3nc3n4CCCCC3)C2)CC1 (stereo not given) | inconclusive: 20 µM [inhibitor, full curve, poor fit]
COc1cc(NC(=S)NCc2ccc(S(N)(=O)=O)cc2)c(OC)cc1Cl | inconclusive: 15.8 µM [inhibitor, full curve, poor fit]
